The supplement of paper PMC8728848
This is one part of the list.

Experiments:
Assay in all cases: glycan array binding signal (z-score within array); higher = stronger binding
Settings in all cases: glycan notation: IUPAC condensed, linker removed
Fuc(a1-2)Gal = molecular target: Fuc(a1-2)Gal
In short: (§1)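 Glycan array data were curated from 3228 arrays in the Consortium for Functional Glycomics database and kept only where the protein sequence was available. Glycan names were converted to IUPAC-condensed notation, and columns mapping to the same glycan were averaged. The binding signal is a within-array Z-score, averaged across arrays of the same protein sequence at different concentrations or buffers and across linkers. Negative Z-scores can be read as non-binding.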

Fuc(a1-2)Gal(b1-3)GalNAc = molecular target: Fuc(a1-2)Gal(b1-3)GalNAc
In short: as §1

[1] = molecular target: Fuc(a1-2)Gal(b1-3)GalNAc(a1-3)[Fuc(a1-2)]Gal(b1-4)Glc
In short: as §1

[2] = molecular target: Fuc(a1-2)Gal(b1-3)GalNAc(a1-3)[Fuc(a1-2)]Gal(b1-4)GlcNAc
In short: as §1

[3] = molecular target: Fuc(a1-2)Gal(b1-3)GalNAc(b1-3)Gal
In short: as §1

[4] = molecular target: Fuc(a1-2)Gal(b1-3)GalNAc(b1-3)Gal(a1-4)Gal(b1-4)Glc
In short: as §1

[5] = molecular target: Fuc(a1-2)Gal(b1-3)GalNAc(b1-4)[Neu5Ac(a2-3)]Gal(b1-4)Glc
In short: as §1

Fuc(a1-2)Gal(b1-3)GlcNAc = molecular target: Fuc(a1-2)Gal(b1-3)GlcNAc
In short: as §1

[6] = molecular target: Fuc(a1-2)Gal(b1-3)GlcNAc(b1-2)Man(a1-3)[Fuc(a1-2)Gal(b1-3)GlcNAc(b1-2)Man(a1-6)]Man(b1-4)GlcNAc(b1-4)GlcNAc
In short: as §1

[7] = molecular target: Fuc(a1-2)Gal(b1-3)GlcNAc(b1-3)Gal(b1-4)Glc
In short: as §1

[8] = molecular target: Fuc(a1-2)Gal(b1-3)GlcNAc(b1-3)[Fuc(a1-3)[Gal(b1-4)]GlcNAc(b1-6)]Gal(b1-4)Glc
In short: as §1

[9] = molecular target: Fuc(a1-2)Gal(b1-3)[Fuc(a1-4)]GlcNAc
In short: as §1

[10] = molecular target: Fuc(a1-2)Gal(b1-3)[Fuc(a1-4)]GlcNAc(b1-2)Man(a1-3)[Fuc(a1-2)Gal(b1-3)[Fuc(a1-4)]GlcNAc(b1-2)Man(a1-6)]Man(b1-4)GlcNAc(b1-4)GlcNAc
In short: as §1

[11] = molecular target: Fuc(a1-2)Gal(b1-3)[Fuc(a1-4)]GlcNAc(b1-3)[Fuc(a1-3)[Gal(b1-4)]GlcNAc(b1-6)]Gal(b1-4)Glc
In short: as §1

[12] = molecular target: Fuc(a1-2)Gal(b1-3)[Fuc(a1-4)]GlcNAc(b1-3)[Gal(b1-4)GlcNAc(b1-6)]Gal(b1-4)Glc
In short: as §1

Fuc(a1-2)Gal(b1-4)Glc = molecular target: Fuc(a1-2)Gal(b1-4)Glc
In short: as §1

Fuc(a1-2)Gal(b1-4)Glc6S = molecular target: Fuc(a1-2)Gal(b1-4)Glc6S
In short: as §1

Fuc(a1-2)Gal(b1-4)GlcNAc = molecular target: Fuc(a1-2)Gal(b1-4)GlcNAc
In short: as §1

[13] = molecular target: Fuc(a1-2)Gal(b1-4)GlcNAc(b1-2)Man(a1-3)[Fuc(a1-2)Gal(b1-4)GlcNAc(b1-2)Man(a1-6)]Man(b1-4)GlcNAc(b1-4)GlcNAc
In short: as §1

[14] = molecular target: Fuc(a1-2)Gal(b1-4)GlcNAc(b1-3)Gal(b1-4)GlcNAc
In short: as §1

[15] = molecular target: Fuc(a1-2)Gal(b1-4)GlcNAc(b1-3)Gal(b1-4)GlcNAc(b1-3)Gal(b1-4)GlcNAc
In short: as §1

[16] = molecular target: Fuc(a1-2)Gal(b1-4)GlcNAc(b1-3)GalNAc
In short: as §1

[17] = molecular target: Fuc(a1-2)Gal(b1-4)GlcNAc6S
In short: as §1

[18] = molecular target: Fuc(a1-2)Gal(b1-4)[Fuc(a1-3)]GlcNAc
In short: as §1

[19] = molecular target: Fuc(a1-2)Gal(b1-4)[Fuc(a1-3)]GlcNAc(b1-2)Man(a1-3)[Fuc(a1-2)Gal(b1-4)[Fuc(a1-3)]GlcNAc(b1-2)Man(a1-6)]Man(b1-4)GlcNAc(b1-4)GlcNAc
In short: as §1

[20] = molecular target: Fuc(a1-2)Gal(b1-4)[Fuc(a1-3)]GlcNAc(b1-3)Gal(b1-4)[Fuc(a1-3)]GlcNAc
In short: as §1

[21] = molecular target: Fuc(a1-2)Gal(b1-4)[Fuc(a1-3)]GlcNAc(b1-3)Gal(b1-4)[Fuc(a1-3)]GlcNAc(b1-3)Gal(b1-4)[Fuc(a1-3)]GlcNAc
In short: as §1

Fuc(a1-2)Gal6S(b1-4)Glc = molecular target: Fuc(a1-2)Gal6S(b1-4)Glc
In short: as §1

[22] = molecular target: Fuc(a1-2)Gal6S(b1-4)Glc6S
In short: as §1

[23] = molecular target: Fuc(a1-2)Gal6S(b1-4)GlcNAc
In short: as §1

B1: CTLY 1 (Homo sapiens), Q6ZS10 (protein)
chain: AITCPEGWLPFEGKCYYFSPSTKSWDEARMFCQENYSHLVIINSFAEHNFVAKAHGSPRVYWLGLNDRAQEGDWRWLDGSPVTLSFWEPEEPNNIHDEDCATMNKGGTWNDLSCYKTTYWICERKGLNDIFEAQKIEWHE
glycan array binding signal (z-score) (Fuc(a1-2)Gal): -0.2
glycan array binding signal (z-score) (Fuc(a1-2)Gal(b1-3)GalNAc): -0.234
glycan array binding signal (z-score) [1]: -0.21
glycan array binding signal (z-score) [2]: -0.207
glycan array binding signal (z-score) [3]: -0.174
glycan array binding signal (z-score) [4]: -0.003
glycan array binding signal (z-score) [5]: -0.229
glycan array binding signal (z-score) (Fuc(a1-2)Gal(b1-3)GlcNAc): -0.234
glycan array binding signal (z-score) [6]: 0.119
glycan array binding signal (z-score) [7]: -0.241
glycan array binding signal (z-score) [8]: -0.239
glycan array binding signal (z-score) [9]: 0.157
glycan array binding signal (z-score) [10]: -0.104
glycan array binding signal (z-score) [11]: -0.034
glycan array binding signal (z-score) [12]: -0.218
glycan array binding signal (z-score) (Fuc(a1-2)Gal(b1-4)Glc): -0.226
glycan array binding signal (z-score) (Fuc(a1-2)Gal(b1-4)Glc6S): -0.241
glycan array binding signal (z-score) (Fuc(a1-2)Gal(b1-4)GlcNAc): -0.167
glycan array binding signal (z-score) [13]: 0.032
glycan array binding signal (z-score) [14]: -0.191
glycan array binding signal (z-score) [15]: -0.23
glycan array binding signal (z-score) [16]: -0.23
glycan array binding signal (z-score) [17]: -0.237
glycan array binding signal (z-score) [18]: 0.421
glycan array binding signal (z-score) [19]: -0.127
glycan array binding signal (z-score) [20]: 2.11
glycan array binding signal (z-score) [21]: 4.81
glycan array binding signal (z-score) (Fuc(a1-2)Gal6S(b1-4)Glc): -0.224
glycan array binding signal (z-score) [22]: -0.208
glycan array binding signal (z-score) [23]: -0.214
